The RNAGym collection of RNA variant scans (doi:10.7554/elife.90254)
The source gives no read counts; variants with many changes may rest on few reads.

B1: LINE1-full (parent)
chain: UACGUAGGUGGUUUUCCCCUGAUAGUGCUAAGGGGGCCUGGAAGUUUGGACUGGGCAGAGCUCAACACAGCGUGGCAAAGUGGCUGUGGCUAGACUGCCUCUCUGGAUUCCUCGUCACUCAGCAGGGCAUCUCUGAGAGAAAUGCC

Variants of: B1
Experiment: self-cleavage, relative activity (ratio to wild type); higher = more cleavage; in vitro, sequencing; the parent is a self-cleaving ribozyme

| Variant | self-cleavage |
| --- | --- |
| A117G A136G A142G | 0.77 |
| G105A A124U A138G | 1.96 |
| A117G A124G A141G | 0 |
| U96G A124G A140G | 0.71 |
| A94U U109A A140G | 0.36 |
| U100A A107G U132C | 1.62 |
| C98G U109C G127A | 0.08 |
| U104A A107U A129U | 1.88 |
| U96C U130A U143C | 0.16 |
| U102C G122A A138G | 1.06 |
| U102C U115A A117U U132A A136G U143C | 2.4 |
| U102A U112C A140G | 1.15 |
| C99U U108C A117G A138U | 1.21 |
| C99A U134C U143C | 0.26 |
| U100A U102C A141G | 1.33 |
| U115C A129G A136G | 2.94 |
| G97A A124G C133U | 0.04 |
| U115A A140G A141G | 1.36 |
| C99U U130C U134C | 0.63 |
| U112C A121G A141G | 1.87 |
| A107G A121U A129G | 0.84 |

| Variant | self-cleavage |
| --- | --- |
| U115A U130C U143A | 2.14 |
| U96C U112C U130C | 0 |
| C110A U134C A138G | 1.08 |
| U115A A142G U143A | 1.79 |
| U96C U100A U102C | 0.95 |
| G114A G125A A140G | 1.33 |
| C99G A140U A142G | 0.61 |
| G114A U115A A129G A136G | 2.53 |
| U96C U100C G139U | 0 |
| C103A U104A A117C | 1.64 |
| U100C G106A U134C | 2.25 |
| U100A U115C A117G | 1.31 |
| U109C A121G A140G | 0.13 |
| A107G A124G A141G | 1.19 |
| U115C C123A U134C | 2.31 |
| A107U U134C A140U | 2.61 |
| U100A A138G U143C | 0.96 |
| U109C U115A A138U | 1.44 |
| U112C U115A A138G | 2.1 |
| A117G A124U A140G | 0 |
| U100C G105U A129C | 2.49 |

| Variant | self-cleavage |
| --- | --- |
| U102A U104A A138U | 1.37 |
| U96C U119C A142G | 1.84 |
| U109C U115C A129U A140G | 0.6 |
| U108C A141G A142G | 0.87 |
| U102A A141G A142U | 0.88 |
| U102C A117U U143G | 2.2 |
| C113U C116A G127C A142G | 1.13 |
| G97A U102C A140U U143C | 0.11 |
| U104A U108C U130C A141G | 1.71 |
| A94U U96C U112C | 0 |
| U104A U108C C123U | 2.01 |
| U100C U112A A138G A140G | 2.3 |
| U102C U112C C123U U132C | 1.36 |
| U100C U119A A142G | 2.18 |
| U96A C131G C133U | 0.03 |
| A107G U119C U130C | 1.47 |
| U104A C120U U134C | 0.66 |
| U104C A121U A129C | 0 |
| U96G A138G U143A | 0.08 |
| U96A A117G C145U | 0.09 |
| U115C A142G U143C | 1.79 |

| Variant | self-cleavage |
| --- | --- |
| U96A C103A A121G G125A | 0.07 |
| U102C U115C A140G | 2.57 |
| C99U U115C U119A | 0.96 |
| U102C U132A A136G | 1.35 |
| U100C G114A A142U | 1.53 |
| U109C A141G U143A | 1.01 |
| U102C U108C U134A A141G | 1.07 |
| U104G G105C G125C | 1.53 |
| U102C G122U A141G | 1.05 |
| C98A G126A A138G | 0.26 |
| C101A U102C U104C | 0.85 |
| A107G A136G A141G | 1.34 |
| U96C U108C A142G | 0 |
| U112C A124C A140G A141U | 0.5 |
| C95U A107G A138G | 0.36 |
| U100A U115C U132C | 0 |
| U108C U119A A140G | 1.38 |
| U104C A129G C145U | 2.94 |
| U108A C113U A121U | 1.15 |
| U109C U115A U119C | 1.36 |
| G105A U109C A129G | 1.09 |
